According to patent US20220381657A1, “METHOD FOR PREPARING BIOLOGICAL MATERIAL HAVING EXCELLENT LIGHT-TRANSMITTING PROPERTY” (RIKEN, priority 2016, published 2022):

tested on: Serius; conditions: Table 1; PBS = 1.00

Going from `CCCCN(CCO)CCO` [#0414, N-Butyldiethanolamine] to `Cc1cccc(C)n1` [#1008, 2,6-Lutidine], the “1st quenching assay Relative Fluorescence of Serius” value rises from 0.70 to 0.71.

Compared with Tween ® 40 [#1455], `CCCCCCCCCCS(=O)(=O)[O-].[Na+]` [#0625, Sodium 1-decanesulfonate] is higher in “1st quenching assay Relative Fluorescence of Serius” value: 0.64 for the first, 0.93 for the second.

First: CC(C)NCCCN [#1027, N-Isopropyl-1,3-diaminopropane]
Second: CN(C)C(=N)N(C)C [#1444, 1,1,3,3-Tetramethylguanidine]
The “1st quenching assay Relative Fluorescence of Serius” value of the first is higher: 0.55 for the first, 0.14 for the second.

Compared with `CCCCCCCCCC(=O)N(C)CC(=O)[O-].[Na+]` [#0703, N-Decanoylsarcosine sodium salt], `CN1CCCC1` [#1295, 1-Methylpyrrolidine] is lower in “1st quenching assay Relative Fluorescence of Serius” value: 1.03 for the first, 0.66 for the second.

First: NCC1CCC(CN)CC1 (stereo not shown) [#0071, 1,4-Bis(aminomethyl) cyclohexane]
Second: CCCCCCCCCCCS(=O)(=O)[O-].[Na+] [#1419, Sodium 1-undecanesulfonate]
The “1st quenching assay Relative Fluorescence of Serius” value of the first is lower: 0.56 for the first, 1.03 for the second.

First: CC(C)CCN [#1038, Isoamylamine]
Second: CCCCNCCN [#0422, N-Butylethylenediamine]
The “1st quenching assay Relative Fluorescence of Serius” value of the first is lower: 0.30 for the first, 0.68 for the second.

Going from `Cc1ccnc(C)c1` [#1312, 2,4-Lutidine] to `CCCCCCCCCS(=O)(=O)[O-].[Na+]` [#0870, Sodium 1-nonanesulfonate], the “1st quenching assay Relative Fluorescence of Serius” value rises from 0.84 to 1.05.

First: CC(O)CN(CCN(CC(C)O)CC(C)O)CC(C)O (stereo not shown) [Quadrol ®, reference compound]
Second: CC1(C)CC(N)CC(C)(CN)C1 (stereo not shown) [#1602, Isophoronediamine]
The “1st quenching assay Relative Fluorescence of Serius” value of the first is higher: 0.57 for the first, 0.53 for the second.

Going from `CCCCC(O)CO` (stereo not shown) [#1051, 1,2-Hexanediol] to `OCC(O)c1ccccc1` (stereo not shown) [#1074, 1-Phenylethane-1,2-diol], the “1st quenching assay Relative Fluorescence of Serius” value falls from 0.84 to 0.58.

Going from Tween ® 80 [#1460] to `CC(C)(C)N(CCO)CCO` [#0390, N-tert- Butyldiethanolamine], the “1st quenching assay Relative Fluorescence of Serius” value falls from 0.91 to 0.72.

With `NCC1CCCC(CN)C1` (stereo not shown) [#0070, 1,3-Bis(aminomethyl) cyclohexane] the “1st quenching assay Relative Fluorescence of Serius” value was 0.52.

same assay, conditions: Table 3; PBS = 1.00

For `CNC(=S)NC` [#0637, 1,3-Dimethyl-thiourea], the “1st quenching assay Relative Fluorescence of Serius” value was 1.05.
